In all, about 360,000 compounds went through this assay and about 16,000 (4.4%) were called active. This list was built around the results that the source calls inconclusive (neither active nor inactive); the mix of calls is not that of the screen. Calls follow the shape of the dose curve; as a rule, active = well fitted inhibition curve with a large enough effect; inconclusive = small, poorly fitted or top-dose-only effect; inactive = no such curve, though single readings can be large or run the other way. A potency beside an inconclusive call is a rough fit, not a confirmed value.
Each compound was assayed against Bromodomain adjacent to zinc finger domain protein 2B (Homo sapiens) (UniProt Q9UIF8) (assay: qHTS Assay for Inhibitors of BAZ2B). Conditions: AlphaScreen BAZ2B-H3K14Ac peptide displacement; activity change, negative = inhibition: at 114 µM (top of the series).
UniProt Q9UIF8, sequence (Q9UIF8 whole entry, looked up, the tested form may be a part): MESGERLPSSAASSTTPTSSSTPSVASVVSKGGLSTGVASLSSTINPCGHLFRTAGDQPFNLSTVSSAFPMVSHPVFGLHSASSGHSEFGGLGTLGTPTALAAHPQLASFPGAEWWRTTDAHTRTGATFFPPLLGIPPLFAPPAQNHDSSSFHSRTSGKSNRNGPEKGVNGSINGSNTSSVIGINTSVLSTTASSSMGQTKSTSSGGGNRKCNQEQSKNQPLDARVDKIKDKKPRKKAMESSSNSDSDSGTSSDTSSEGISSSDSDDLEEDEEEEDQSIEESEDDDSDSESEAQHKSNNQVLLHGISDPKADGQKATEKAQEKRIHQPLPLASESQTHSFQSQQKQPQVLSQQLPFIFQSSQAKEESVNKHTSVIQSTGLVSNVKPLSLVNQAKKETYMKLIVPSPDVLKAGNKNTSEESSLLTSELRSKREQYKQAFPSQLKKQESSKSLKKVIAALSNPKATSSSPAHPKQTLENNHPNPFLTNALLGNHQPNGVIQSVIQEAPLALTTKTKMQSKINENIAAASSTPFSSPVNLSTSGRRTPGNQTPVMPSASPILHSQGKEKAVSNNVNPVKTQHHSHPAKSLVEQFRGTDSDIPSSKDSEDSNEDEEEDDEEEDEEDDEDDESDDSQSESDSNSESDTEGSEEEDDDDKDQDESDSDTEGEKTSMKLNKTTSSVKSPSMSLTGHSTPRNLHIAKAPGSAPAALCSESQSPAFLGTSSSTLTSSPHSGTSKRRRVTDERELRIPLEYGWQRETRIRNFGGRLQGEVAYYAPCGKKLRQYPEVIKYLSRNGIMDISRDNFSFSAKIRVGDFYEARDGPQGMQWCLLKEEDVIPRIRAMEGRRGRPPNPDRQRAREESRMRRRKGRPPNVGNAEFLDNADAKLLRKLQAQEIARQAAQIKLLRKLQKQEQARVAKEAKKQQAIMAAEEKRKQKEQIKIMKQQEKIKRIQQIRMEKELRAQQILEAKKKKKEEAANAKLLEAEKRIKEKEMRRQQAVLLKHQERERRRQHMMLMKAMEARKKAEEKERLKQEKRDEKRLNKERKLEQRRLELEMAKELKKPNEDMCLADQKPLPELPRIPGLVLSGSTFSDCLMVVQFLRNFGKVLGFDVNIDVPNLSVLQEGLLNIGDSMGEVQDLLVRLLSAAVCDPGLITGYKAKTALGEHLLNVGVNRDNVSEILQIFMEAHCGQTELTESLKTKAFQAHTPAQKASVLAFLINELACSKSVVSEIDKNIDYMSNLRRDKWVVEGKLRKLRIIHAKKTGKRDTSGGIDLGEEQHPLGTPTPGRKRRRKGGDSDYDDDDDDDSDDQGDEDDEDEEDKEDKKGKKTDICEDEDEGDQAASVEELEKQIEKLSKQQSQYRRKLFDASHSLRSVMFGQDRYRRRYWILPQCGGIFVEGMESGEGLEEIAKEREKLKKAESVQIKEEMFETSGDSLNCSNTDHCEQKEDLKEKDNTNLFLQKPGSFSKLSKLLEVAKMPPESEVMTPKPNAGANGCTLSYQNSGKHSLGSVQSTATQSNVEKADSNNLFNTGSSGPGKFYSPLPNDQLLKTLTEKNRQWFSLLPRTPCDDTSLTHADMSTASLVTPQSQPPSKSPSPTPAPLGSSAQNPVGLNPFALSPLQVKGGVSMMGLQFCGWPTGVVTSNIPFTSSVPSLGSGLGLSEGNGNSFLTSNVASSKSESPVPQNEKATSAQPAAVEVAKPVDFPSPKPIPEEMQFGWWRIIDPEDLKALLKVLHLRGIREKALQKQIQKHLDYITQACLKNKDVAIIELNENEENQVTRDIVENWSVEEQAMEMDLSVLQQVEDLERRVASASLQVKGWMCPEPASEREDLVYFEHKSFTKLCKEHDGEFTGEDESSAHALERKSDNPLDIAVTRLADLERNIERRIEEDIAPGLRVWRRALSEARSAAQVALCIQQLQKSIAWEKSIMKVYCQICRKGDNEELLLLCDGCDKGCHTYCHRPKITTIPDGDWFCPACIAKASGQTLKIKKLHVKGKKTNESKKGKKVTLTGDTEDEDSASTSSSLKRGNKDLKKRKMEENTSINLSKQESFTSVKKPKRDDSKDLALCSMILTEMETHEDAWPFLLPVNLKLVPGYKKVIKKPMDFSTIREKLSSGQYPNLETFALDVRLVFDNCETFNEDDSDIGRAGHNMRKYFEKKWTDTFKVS
In short: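 AlphaScreen luminescence quantifies BAZ2B engagement of H3K14Ac peptide; the protein and biotinylated peptide are both at 50 nM final, buffer PBS pH 7.4 with 0.01% Tween-20, all steps at room temperature.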
% is scaled to controls: 0 for no effect and ±100 for the full control effect; potency is read from the fitted curve at half-maximal effect; tags tell the direction and shape of the fitted curve.
Also: nearly all actives have a fitted effect of over 60% in size.

Structure (SMILES) | Potency | activity change, negative = inhibition
Cc1sc2c(c1C)C(c1ccc(C(C)(C)C)cc1)=NCC(=O)N2CC(=O)Nc1nccs1 | inconclusive: 44.7 µM [inhibitor, partial curve] | 
COC(=O)C1=C(c2cccc(OCc3ccccc3)c2)C[C@@H]2CC[C@H]1N2C(=O)NCCN1CCOCC1 | inconclusive: 89.1 µM [inhibitor, single point] | 
CN1C(=O)C(=Cc2sc(=O)n(-c3ccccc3)c2N2CCCCC2)C(=O)N(C)C1=O | inconclusive: 39.8 µM [inhibitor, partial curve] | 
CN(C)CC1CCCCC1OC(=O)Cc1ccc(Cl)c([N+](=O)[O-])c1 (stereo unspecified) | inconclusive: 89.1 µM [inhibitor, single point] | 
O=C1NC(=O)N(Cc2ccccc2)C(=O)/C1=C/N1CCCc2ccccc21 | inconclusive: 89.1 µM [inhibitor, single point] | 
CC1=NN(c2ccccc2)C(=O)C1/C=C1/C(=O)NC(=O)N(c2cccc(C)c2)C1=O (stereo unspecified) | inconclusive: 89.1 µM [inhibitor, single point] | 
Cn1cc(C=C(C#N)C#N)c2ccccc21 | inactive | 
O=[N+]([O-])c1ccc(CN2CC=C(c3ccccc3)CC2)cc1 | inconclusive: 50.1 µM [inhibitor, partial curve] | 
COc1cc(OC)cc(C(=O)NC(=S)N2C[C@H]3C[C@H](C2)c2cccc(=O)n2C3)c1 | inconclusive: 89.1 µM [inhibitor, single point] | 
Cc1ccccc1Cn1cccc(C(=O)Nc2cc(Cl)ccc2C#N)c1=O | inactive | 
CCOc1cccc(CNC2CN3CCC2CC3)c1 (stereo unspecified) | inactive | 
ClCCN1CCN(c2ccnc3cc(Cl)ccc23)CC1 | inconclusive: 89.1 µM [inhibitor, single point] | 
COc1cc(CN2CCNCC2)cc(OC)c1OC | inactive | 
CCN1C(=O)/C(=C\c2ccc([N+](=O)[O-])s2)C(=O)NC1=S | active: 10 µM | 
COc1ccc(OC)c(N2C(=O)CC(=O)NC2=O)c1 | inactive | 
COc1ccccc1N=Nc1c(O)[nH]c(=S)[nH]c1=O | inconclusive: 44.7 µM [inhibitor, partial curve] | 
Cn1c(O)c(C(=Nc2ccccc2)SCc2ccccc2Cl)c(=O)n(C)c1=O | active: 50.1 µM | 
COc1ccc(OC)c(CN2CCN(C(=O)Cc3ccccc3)CC2)c1 |  | inconclusive: -111% [inhibitor]
CC(C)(O)[C@H]1O[C@H]2CC[C@@]3(C)[C@@](O)(CC[C@H]4Cc5c([nH]c6ccccc56)[C@@]43C)C2=CC1=O | inconclusive: 35.5 µM [inhibitor, full curve, poor fit] | 
O=P(NS(=O)(=O)c1ccc(Br)cc1)(Oc1ccccc1)Oc1ccccc1 | inconclusive: 100 µM [inhibitor, single point] | 
CC1=C(C(=O)O)N2C(=O)C(NC(=O)c3nn(C)cc3[N+](=O)[O-])C2SC1 (stereo unspecified) | active: 50.1 µM | 
COc1ccc(NC(=S)NC2CC3CCC(C2)N3Cc2ccco2)cc1 (stereo unspecified) | inconclusive: 79.4 µM [inhibitor, partial curve] | 
NCCc1c[nH]c2ccc(OCc3ccccc3)cc12 | inconclusive: 35.5 µM [inhibitor, partial curve] | 
Cc1ccc(CNS(=O)(=O)c2cc3c(cc2C)N(C)CCO3)cc1 | inconclusive: 56.2 µM [inhibitor, partial curve] | 

Structure (SMILES) | Potency | activity change, negative = inhibition
CCOP(=O)(OCC)C(O)c1ccc2c(c1)OCO2 (stereo unspecified) | inactive | 
Cc1cccc(N2C(=O)/C(=C/c3ccc(CN(CCC#N)S(C)(=O)=O)o3)C(=O)NC2=S)c1 | active: 50.1 µM | 
COc1ccc(CN2CCN(C(=O)Cc3ccccc3)CC2)c(OC)c1 | active: 56.2 µM | 
CCOC(=O)c1c(C)[nH]c(C)c1S(=O)(=O)NCC(=O)N1CCN(c2cc(Cl)ccc2C)CC1 | inconclusive: 39.8 µM [inhibitor, full curve, poor fit] | 
CCC(=NCc1ccco1)c1c(O)n(C2CCCCC2)c(=O)[nH]c1=O | inconclusive: 89.1 µM [inhibitor, single point] | 
CCOc1ccc(-n2c(/C=C/c3ccccc3)nc3ccccc3c2=O)cc1 | inactive | 
OC(COCc1ccc(Cl)cc1)CN1CC=C(c2ccccc2)CC1 (stereo unspecified) | active: 50.1 µM | 
Cn1cccc1/C=C1\C(=O)NC(=O)N(Cc2ccco2)C1=O | active: 56.2 µM | 
COc1ccc(C2NCc3ccccc3-n3cccc32)cc1 (stereo unspecified) | inconclusive: 79.4 µM [inhibitor, single point] | 
CCC[N+]12CCC(CC1)C(C(O)(c1ccccc1)c1ccccc1)C2 (stereo unspecified) | inactive | 
CCCCCSc1cc(O)c(C(CNC)C(C)C)cc1OC (stereo unspecified) | inconclusive: 44.7 µM [inhibitor, partial curve] | 
Cc1cc(C=C2C(=O)NC(=S)NC2=O)c(C)n1C1CCCC1 | active: 79.4 µM | 
CN1C(=O)C(C2c3ccccc3C(=O)N2Cc2ccccc2)C(=O)N(C)C1=O (stereo unspecified) | active: 79.4 µM | 
COc1cc2c(cc1O)C[C@H]1NCCc3cc4c(c-2c31)OCO4 | active: 22.4 µM | 
CCCCn1c(O)c(/C=N/NC(=O)c2ccncc2)c(=O)[nH]c1=O | inconclusive: 89.1 µM [inhibitor, single point] | 
O=c1[nH]c(=S)n(-c2ccccc2)c(O)c1C=NCc1ccccn1 | inactive | 
COc1ccccc1N1C(=O)CC(=O)NC1=O | active: 50.1 µM | 
COc1ccc(-n2c(/C=C/c3ccc(O)cc3)nc3ccccc3c2=O)cc1 | inactive | 
CN(C)CCN(C(=O)c1cc(Cl)sc1Cl)c1nc2ccc(F)cc2s1 | inconclusive: 50.1 µM [inhibitor, partial curve] | 
Cc1cccc(-n2c(O)c(/C=C3/C(c4ccccc4)=Nc4ccccc43)c(=O)[nH]c2=O)c1 | active: 39.8 µM | 
COC(=O)C1=C(c2c(C)noc2C)C[C@@H]2CC[C@H]1N2C(=O)N1CCC(O)(c2ccc(Cl)cc2)CC1 | inactive | 
COc1cccc(-n2c(CN3CCN(C)CC3)nc3ccc([N+](=O)[O-])cc3c2=O)c1 | inactive | 
Cc1ccc(NC(=O)COC(=O)CCc2c[nH]c3ccccc23)cc1[N+](=O)[O-] | inconclusive: 20 µM [inhibitor, full curve, poor fit] | 
Oc1ccccc1-[n+]1c(-c2ccccc2)cc(-c2ccccc2)c(O)c1-c1ccccc1 | inconclusive: 44.7 µM [inhibitor, partial curve] | 

Structure (SMILES) | Potency | activity change, negative = inhibition
NNCc1cccc(O)c1 | inconclusive: 89.1 µM [inhibitor, single point] | 
Cc1cc(/C=C2\C(=O)NC(=O)N(Cc3ccccc3)C2=O)c(C)n1-c1ccc(Cl)c(C(=O)O)c1 | active: 31.6 µM | 
O=[N+]([O-])c1ccc(N2CCCC(C(F)(F)F)C2)c2ccncc12 (stereo unspecified) | inconclusive: 50.1 µM [inhibitor, partial curve] | 
CCOc1ccccc1-n1c(O)c(C=Nc2ccc(N(CC)CC)cc2)c(=O)[nH]c1=O | inconclusive: 50.1 µM [inhibitor, partial curve] | 
Cc1ccc(Oc2cc(NN3CCCCC3)c([N+](=O)[O-])cc2[N+](=O)[O-])c([N+](=O)[O-])c1 | inconclusive: 8.91 µM [inhibitor, full curve] | 
Cc1cc(/C=C2/C(=O)NC(=O)N(Cc3ccco3)C2=O)c(C)n1-c1ccc(C(=O)O)cc1 | active: 56.2 µM | 
O=C(c1ccc2c(c1)N(Cc1ccccc1)CCS2)N1CCC2(CC1)OCCO2 | inconclusive: 35.5 µM [inhibitor, partial curve] | 
COc1ccc(-n2c(O)c(C=NCCCn3ccnc3)c(=O)[nH]c2=O)cc1 | inconclusive: 11.2 µM [inhibitor, full curve] | 
CN1C(=O)NC(=O)/C(=C/c2ccc(C(=O)O)cc2)C1=O | inactive | 
Clc1cccc(CN2CCCCC2c2cccnc2)c1 (stereo unspecified) | inconclusive: 89.1 µM [inhibitor, single point] | 
Cc1cc(C)nc(NS(=O)(=O)c2ccc(NC(=S)NC(=O)C3CCCC3)cc2)n1 | inconclusive: 100 µM [inhibitor, single point] | 
CCC(=Nc1ccc(OC)cc1OC)c1c(O)n(C2CCCCC2)c(=O)[nH]c1=O | inactive | 
Cc1cc(/C=C2\C(=O)NC(=O)N(Cc3ccccc3Cl)C2=O)c(C)n1-c1ccc(C(=O)O)cc1 | active: 50.1 µM | 
CN1C(=O)C(=Cc2ccc(-c3cccc(Cl)c3)o2)C(=O)N(C)C1=O | inconclusive: 79.4 µM [inhibitor, single point] | 
COC(=O)C1=Nc2ccccc2/C1=C\c1c(O)n(-c2cc(OC)ccc2OC)c(=O)[nH]c1=O | active: 79.4 µM | 
CC(C)CN(CC(C)C)c1ccc(C=C2C(=O)NC(=S)NC2=O)cc1[N+](=O)[O-] | active: 35.5 µM | 
O=C(CN1CCOCC1)c1cccc2ccccc12 | active: 50.1 µM | 
CCOc1ccc(NCc2cccn2-c2nnc(N3CCC(C(=O)NCc4ccc(C)cc4)CC3)s2)cc1 | inconclusive: 56.2 µM [inhibitor, partial curve] | 
Cc1ccc(OCC(=O)N2CCCC(N3CCN(c4ccc(F)cc4)CC3)C2)cc1 (stereo unspecified) | inactive | 
O=C(COC(=O)c1ccc(O)cc1)Nc1ccc(Cl)cc1C(=O)c1ccccc1 | inconclusive: 70.8 µM [inhibitor, single point] | 
N#CC(C#N)=NNc1ccc(S(=O)(=O)N2CCCC2)cc1 | inconclusive: 50.1 µM [inhibitor, partial curve] | 
C=CCN1CC[C@]23c4c5ccc(O)c4O[C@H]2C(=O)CC[C@@]3(O)[C@H]1C5 | inactive | 
CN1C(=O)NC(=O)/C(=C\c2ccc([N+](=O)[O-])o2)C1=O | active: 35.5 µM | 

Reference: PubChem BioAssay AID504333 (National Center for Advancing Translational Sciences (NCATS), 2011)
